Results taken from PubChem BioAssay (NCI).
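Interpolation was linear, between the two tested concentrations surrounding the appropriate level; five concentrations were tested over 48 hours in 96-well plates. TGI marks complete inhibition of growth.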 Not every entry of the source has a single result; some have several. This list holds those alone. An entry can have further records. The tests behind the records often covered other concentration ranges, which the source does not state; a value can be the end of its range. Records carry a tag for their origin. The letters are not those of the source and start again with each entry.

Tests used:
Experiment in all cases: inhibition of tumour cell growth, NCI panel, 48 h
[1] = system: SK-MEL-2 melanoma
[2] = system: COLO 205 colon
[3] = system: MDA-MB-231 breast
[4] = system: 786-0 renal
[5] = system: OVCAR-3 ovarian
[6] = system: BT-549 breast
[7] = system: M14 melanoma
[8] = system: UACC-62 melanoma
[9] = system: HOP-92 NSCLC
[10] = system: CCRF-CEM leukemia
[11] = system: NCI-H23 lung
[12] = system: OVCAR-8 ovarian
[13] = system: NCI/ADR-RES ovarian
[14] = system: K-562 leukemia
[15] = system: A549 NSCLC
[16] = system: NCI-H226 lung
[17] = system: HT29 colon
[18] = system: HL-60(TB) leukemia
[19] = system: MCF7 breast
[20] = system: ACHN renal
[21] = system: MOLT-4 leukemia
[22] = system: T-47D breast
[23] = system: KM12 colon
[24] = system: UACC-257 melanoma
[25] = system: SR leukemia
[26] = system: OVCAR-5 ovarian
[27] = system: IGROV1 ovarian
[28] = system: SK-MEL-5 melanoma
[29] = system: RXF 393 renal
[30] = system: HCT-15 colon
[31] = system: TK-10 renal
[32] = system: HCC-2998 colon
[33] = system: OVCAR-4 ovarian
[34] = system: RPMI-8226 leukemia
[35] = system: PC-3 prostate
[36] = system: LOX IMVI melanoma
[37] = system: HS 578T breast
[38] = system: UO-31 renal
[39] = system: MALME-3M melanoma
[40] = system: A498 renal
[41] = system: HOP-62 NSCLC
[42] = system: SN12C renal
[43] = system: CAKI-1 renal
[44] = system: HCT-116 colon
[45] = system: NCI-H522 lung
[46] = system: EKVX NSCLC

## CC/C(=C(\c1ccccc1)c1ccc(OCCN(C)C)cc1)c1ccccc1
[1]
  TGI: > 25 µM, 13.2 µM, 9.11 µM, 14.9 µM [sample A] and 12.5 µM [sample B]
[2]
  TGI: > 25 µM, 5.32 µM, 7.45 µM, 8.01 µM, 9.16 µM [sample A] and 1.75 µM [sample B]
[3]
  TGI: > 25 µM, 17.3 µM, 15 µM, 9.45 µM, 10.4 µM [sample A] and 10.5 µM [sample B]
[4]
  TGI: > 25 µM, 11.2 µM, 6.11 µM, 8.55 µM [sample A] and 10.9 µM [sample B]
[5]
  TGI: > 25 µM, 11 µM, 25.5 µM, 9.65 µM, 10.2 µM [sample A] and 9.37 µM [sample B]
[6]
  TGI: > 25 µM, 19.2 µM, 16 µM, 13.3 µM, 7.61 µM [sample A] and 14.8 µM [sample B]
[7]
  TGI: > 25 µM, 5.21 µM, 5.91 µM, 8.05 µM, 5.72 µM [sample A] and 2.13 µM [sample B]
[8]
  TGI: > 25 µM, 15.8 µM, 15.5 µM, 10.4 µM, 13.1 µM [sample A] and 6.65 µM [sample B]
[9]
  TGI: 25, 12.5, 21.4, 9.41, 10.6 µM [sample A] and 8.2 µM [sample B]
[10]
  TGI: > 25 µM, 9.77 µM, 18.7 µM, 32.2 µM [sample A] and 9.44 µM [sample B]
[11]
  TGI: > 25 µM, 16.1 µM, 34.2 µM, 11.2 µM, 12 µM [sample A] and 11.4 µM [sample B]
[12]
  TGI: > 25 µM, 19.2 µM, 50.6 µM, 12 µM, 11.5 µM [sample A] and 13 µM [sample B]
[13]
  TGI: > 25 µM, 14.2 µM, 21.3 µM, 10.5 µM, 13.7 µM [sample A] and 10.3 µM [sample B]
[14]
  TGI: > 25 µM, 6.63 µM, 6.06 µM, 71.7 µM [sample A] and 6.23 µM [sample B]
[15]
  TGI: > 25 µM, 11.9 µM, 37.3 µM, 11.1 µM, 12 µM [sample A] and 10 µM [sample B]
[16]
  TGI: > 25 µM, 27.5 µM, 23.8 µM, 12.1 µM, 11.6 µM [sample A] and 13.4 µM [sample B]
[17]
  TGI: > 25 µM, 5.67 µM, 4.7 µM, 7.4 µM, 6.35 µM [sample A] and 2.69 µM [sample B]
[18]
  TGI: 5.11 µM [sample A, 1 test] and 9.54 µM [sample A, mean of 13 tests] and > 25 µM [sample A, mean of 2 tests] and 32.2 µM [sample A, mean of 6 tests] and 3.71 µM [sample B, 1 test]
[19]
  TGI: 25, 6.81, 5.85, 7.41, 9.33 µM [sample A] and 6.98 µM [sample B]
[20]
  TGI: > 25 µM, 15.5 µM, 27.6 µM, 14.1 µM [sample A] and 12.9 µM [sample B]
[21]
  TGI: > 25 µM, 8.78 µM, 8.33 µM, 15.8 µM [sample A] and 10.5 µM [sample B]
[22]
  TGI: > 25 µM, 12.3 µM, 21.4 µM, 9.64 µM, 5.89 µM [sample A] and 7.61 µM [sample B]
[23]
  TGI: 5.21 µM [sample A, 1 test] and 7.37 µM [sample A, mean of 14 tests] and > 25 µM, 12.7 µM [sample A, mean of 2 tests] and 7.42 µM [sample A, mean of 7 tests] and 8.8 µM [sample B, 1 test]
[24]
  TGI: > 25 µM, 7.23 µM, 8.14 µM, 8.8 µM, 8.37 µM [sample A] and 2.74 µM [sample B]
[25]
  TGI: > 25 µM, 4.49 µM, 11.6 µM, 34.9 µM [sample A] and 5.29 µM [sample B]
[26]
  TGI: 51.7 µM [sample A, 1 test] and 16 µM [sample A, mean of 14 tests] and > 25 µM, 15.7 µM [sample A, mean of 2 tests] and 9.81 µM [sample A, mean of 8 tests] and 14 µM [sample B, 1 test]
[27]
  TGI: > 25 µM, 13.7 µM, 125 µM, 11.1 µM, 10.9 µM [sample A] and 11.4 µM [sample B]
[28]
  TGI: 4.37, 4.21, 7.57, 6.87 µM [sample A] and 1.6 µM [sample B]
[29]
  TGI: > 25 µM, 9.03 µM, 10.2 µM, 8.63 µM [sample A] and 5.96 µM [sample B]
[30]
  TGI: > 25 µM, 10.3 µM, 11.2 µM, 9.09 µM, 9.23 µM [sample A] and 7.43 µM [sample B]
[31]
  TGI: > 25 µM, 15.1 µM, 23.2 µM, 8.37 µM, 13.3 µM [sample A] and 11.1 µM [sample B]
[32]
  TGI: > 25 µM, 6.31 µM, 11.8 µM, 7.95 µM, 7.76 µM [sample A] and 3.74 µM [sample B]
[33]
  TGI: > 25 µM, 15.6 µM, 35.9 µM, 9.94 µM, 14.5 µM [sample A] and 13 µM [sample B]
[34]
  TGI: 7.54 µM [sample A, 1 test] and 8.1 µM [sample A, mean of 14 tests] and > 25 µM [sample A, mean of 2 tests] and 32.9 µM [sample A, mean of 4 tests] and 3.27 µM [sample B, 1 test]
[35]
  TGI: > 25 µM, 10 µM, 21 µM, 8.6 µM, 9.86 µM [sample A] and 9.3 µM [sample B]
[36]
  TGI: > 25 µM, 4.49 µM, 3.98 µM, 7.83 µM, 5.96 µM [sample A] and 5.83 µM [sample B]
[37]
  TGI: > 25 µM, 11.6 µM, 11.3 µM, 12.9 µM, 11.1 µM [sample A] and 14.4 µM [sample B]
[38]
  TGI: > 25 µM, 17.3 µM, 58.4 µM, 8.99 µM, 9.47 µM [sample A] and 12.4 µM [sample B]
[39]
  TGI: 4.6 µM [sample A, 1 test] and 7.49 µM [sample A, mean of 14 tests] and > 25 µM, 10.7 µM [sample A, mean of 2 tests] and 8.21 µM [sample A, mean of 4 tests] and 7.42 µM [sample B, 1 test]
[40]
  TGI: > 25 µM, 16.9 µM, 40.8 µM, 9.15 µM [sample A] and 10.1 µM [sample B]
[41]
  TGI: > 25 µM, 21.8 µM, 34.8 µM, 8.64 µM, 10.9 µM [sample A] and 11.8 µM [sample B]
[42]
  TGI: 26.9 µM, 10.6 µM [sample A, 1 test] and 16.4 µM [sample A, mean of 14 tests] and > 25 µM [sample A, mean of 2 tests] and 8.07 µM [sample A, mean of 6 tests] and 10.2 µM [sample B, 1 test]
[43]
  TGI: 25.2 µM [sample A, 1 test] and 14.2 µM [sample A, mean of 14 tests] and > 25 µM, 17 µM [sample A, mean of 2 tests] and 11.2 µM [sample A, mean of 8 tests] and 10.9 µM [sample B, 1 test]
[44]
  TGI: > 25 µM, 13.7 µM, 12.9 µM, 10.6 µM, 9.71 µM [sample A] and 8.29 µM [sample B]
[45]
  TGI: 42.7 µM [sample A, 1 test] and 16.6 µM [sample A, mean of 12 tests] and > 25 µM, 9.99 µM [sample A, mean of 2 tests] and 8.34 µM [sample A, mean of 4 tests] and 4.96 µM [sample B, 1 test]
[46]
  TGI: > 25 µM, 20.2 µM, 27.3 µM, 13.9 µM, 18.1 µM [sample A] and 11.6 µM [sample B]
